# Data as given in PubChem BioAssay AID686970 (National Center for Advancing Translational Sciences (NCATS), 2013).
# Among all 360,000 compounds or so, about 6,000 (1.7%) were called active. Inconclusive results, whose numbers are uncertain, are shown with a selection of clear calls. Calls follow the shape of the dose curve; as a rule, active = well fitted cell-killing curve with a large enough effect; inconclusive = small, poorly fitted or top-dose-only effect, or effect the other way; inactive = flat fitted curve, though single readings scatter. No potency is given beside an inconclusive call; the fits are too rough.
# Experiment: qHTS for induction of synthetic lethality in tumor cells producing 2HG: qHTS for the HT-1080-NT fibrosarcoma cell line;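 also: NT is the 2HG producing partner of a matched IDH1 knockdown line; nearly all actives have a fitted effect of over 55% in size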;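 as to activity, negative = less viability: 0% = DMSO-treated cells and -100% = media-only wells without cells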
# Conditions: HT-1080-NT fibrosarcoma viability, CellTiter-Glo ATP luminescence, 48 h; activity, negative = less viability: at 46.1 µM (top of the series) unless noted
# How it was run: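 Toxicity toward the 2HG-producing NT line was scored as %Activity, normalised to DMSO and no-cell wells, from CellTiter-Glo luminescence after 48 hours' treatment.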
# Potency is read from the fitted curve at half-maximal effect; tags tell the direction and shape of the fitted curve.
Structure (SMILES),Potency,"activity, negative = less viability"
COC(=O)Cc1ccc(OC2(C)CCN(Cc3ccc(-c4ccccn4)cc3)C2)cc1 (configuration not stated),"inconclusive [cytotoxic, single point]",
Cc1cccc(-c2ccc(O)cc2CN2CCN(c3ncc(Cc4ccccc4)cn3)CC2)c1,"inconclusive [cytotoxic, single point]",
CCN(CC)c1nc(Nc2ccc(Cl)cc2)nc(OCC#N)n1,"inconclusive [cytotoxic, single point]",
CCOc1ccccc1C(=O)NCc1ccc2c(c1)OCO2,inactive,
CSCC(=O)N1CCc2ccc(NC(=O)c3ccccc3Cl)cc2C1,inactive,
CCOC(=O)c1ccc(S(=O)(=O)NNC(=O)c2cccc(N(C)C)c2)cc1,inactive,
CCOc1ccc(S(=O)(=O)Nc2cccnc2)cc1,inactive,
CCOc1ccc2nnnn2n1,inactive,
COc1ccc(CN2CCC(C)(Oc3ccc(C(C)=O)cc3)C2)c2ccccc12 (configuration not stated),"inconclusive [cytotoxic, single point]",
COc1ccc(-c2ccc(SC)nn2)cc1,active: 20.6 µM,
CCOC(=O)c1c(NC(=O)CN2CCCCC2)sc2c1CCCC2O (configuration not stated),inactive,
COc1ccc2sc(-c3ccc(S(C)(=O)=O)cc3)c(C#Cc3cncn3C)c2c1,active: 20.6 µM,
O=C(CCN1N=C(c2ccccc2)CCC1=O)NCC1COc2ccccc2O1 (configuration not stated),inactive,
CCOC(=O)C1=NNC(C(=O)c2ccccc2)C1c1ccc(C)cc1 (configuration not stated),inactive,
O=C(O)c1cccc(-c2nc3ccccc3[nH]2)c1,inactive,
N#C/C(=C/c1ccc(Br)s1)C(=O)NCCc1c[nH]c2ccccc12,"inconclusive [cytotoxic, single point]",
CC(C)(C)Cc1nc2ccccc2n1CCc1ccccc1,"inconclusive [cytotoxic, single point]",
COc1ccccc1N1CCN(c2ccc(Cl)nn2)CC1,"inconclusive [rising, partial curve]",
CC(C)C[C@@H](CO)N(Cc1ccccc1)S(=O)(=O)N(Cc1ccccc1)[C@H](CO)CC(C)C,"inconclusive [cytotoxic, single point]",
CCCCCCCn1ccc(=N)cc1,"inconclusive [cytotoxic, single point]",
CC(=O)Nc1nc2ccccc2n1Cc1ccccc1,"inconclusive [cytotoxic, single point]",
NC(=O)c1cc(NC(=O)CCNS(=O)(=O)c2cccc(C(F)(F)F)c2)cc(C(N)=O)c1,inactive,
Cc1cc(N=Nc2ccc(Cl)cc2)cc(CN2CCCC2)c1O,"inconclusive [cytotoxic, single point]",
CCOC(=O)Cc1csc(NC(=S)NC(=O)c2cccc([N+](=O)[O-])c2)n1,inactive,
C[C@H](CO)N1C[C@H](C)[C@@H](CN(C)C(=O)Nc2ccc(C(F)(F)F)cc2)Oc2c(NC(=O)c3ccncc3)cccc2C1=O,inactive,
COC(C(=O)Nc1ccc(S(=O)(=O)Nc2ccc(F)cc2)cc1)c1ccccc1 (configuration not stated),"inconclusive [cytotoxic, partial curve]",

Structure (SMILES),Potency,"activity, negative = less viability"
CC(=O)Nc1cccc(-c2ccnc3c2CC(C(=O)NCc2ccc(N(C)C)cc2)O3)c1 (configuration not stated),"inconclusive [cytotoxic, partial curve]",
CCC(C)(C)NC(=O)CCCSc1nc2ccccc2[nH]1,inactive,
Cc1nc2c(=O)n(C)c(=O)n(C)c2nc1Cl,active: 9.2 µM,
Cc1cccc(C)c1OCc1nnc2c3cnn(C)c3ncn12,inactive,
Cc1cc(NC(=O)CCCC(=O)N(c2ccccc2)C(C(=O)NC2CCCCC2)c2cccs2)no1 (configuration not stated),inactive,
O=C1C=C(OCCF)CC(c2ccccc2C(F)(F)F)O1 (configuration not stated),inactive,
COC(=O)C1CCN(C(=O)c2cc(S(=O)(=O)N3CCCCC3)ccc2Cl)CC1,inactive,
C[C@@H]1CN([C@@H](C)CO)S(=O)(=O)c2ccc(-c3ccccc3)cc2O[C@@H]1CN(C)Cc1ccccc1C(=O)O,inactive,
CC(=O)Nc1nc(COc2ccccc2)cs1,inactive,
CCOc1ccc(C2c3cc(OC)c(OC)cc3CC(=O)N2c2ccc(OC)cc2)cc1 (configuration not stated),"inconclusive [cytotoxic, single point]",
COc1cc(OC)cc(C(=O)Nc2ccc3c(c2)CCCN3C(=O)c2cccs2)c1,"inconclusive [cytotoxic, partial curve]",
COc1ccc(-n2cc(-c3ccccc3)[nH]c2=S)c(OC)c1,"inconclusive [cytotoxic, single point]",
COc1ccc(C(C)=O)cc1CSc1nnc(Nc2ccccc2)s1,"inconclusive [cytotoxic, single point]",
CCOC(=O)N1CCN(S(=O)(=O)c2ccc(C)cc2)C1,inactive,
CCCCC(CC)Cn1c(N)c(C#N)c2nc3ccccc3nc21 (configuration not stated),"inconclusive [cytotoxic, single point]",
COc1ccc(/C=C/C(=O)c2ccccc2O)cc1CN1CCOCC1,"inconclusive [cytotoxic, partial curve]",
O=S(=O)(CC(CN1CCCCC1)N1CCCCC1)c1ccc2ccccc2c1 (configuration not stated),"inconclusive [cytotoxic, full curve]",
Cc1ccc2c(c1)c1c3n2CCN=C3CCC1,inactive,
O=C(Nc1cccc(F)c1)c1ccc(-c2cccnc2)c2ccoc12,,inconclusive: -32.2%
CC/C(=C(\c1ccccc1)c1ccc(OCCN(C)C)cc1)c1ccccc1,active: 16.4 µM,
CCOC(=O)/C(=C/c1ccc(OC(F)F)cc1)C1=Nn2c(nnc2-c2ccc(Cl)cc2)SC1,active: 3.26 µM,
COc1ccc(Cl)cc1NC(=O)c1nnn(CC(=O)Nc2ccc(C)c(C)c2)c1N,"inconclusive [rising, single point]",
C=C(c1ccccc1O)n1ccnc1,inactive,
COC(=O)C[C@@H]1C=C[C@H](NS(=O)(=O)c2cccc(F)c2)[C@@H](CO)O1,"inconclusive [rising, single point]",
COc1ccc(OC)c(NC(=O)CSc2nnnn2-c2ccc3c(c2)OCO3)c1,"inconclusive [cytotoxic, single point]",
CC(C)(C)CC(C)(C)NCC(O)COc1c(F)cc(Br)cc1F (configuration not stated),active: 20.6 µM,

Structure (SMILES),Potency,"activity, negative = less viability"
Fc1ccccc1-c1csc(=Nc2cccnc2)n1CC1CCCO1 (configuration not stated),inactive,
COc1ccc(-c2[nH]c(-c3ccc(C)cc3)nc2SCC(=O)Nc2nccs2)cc1,"inconclusive [cytotoxic, single point]",
Cc1cc(C(=O)CCl)c(C)n1Cc1ccco1,"inconclusive [cytotoxic, single point]",
NC(=O)c1ccc(NC(=O)C#Cc2ccccc2)cc1,active: 20.6 µM,
O=C(N/N=C1\CCCc2c1[nH]c1ccc(Cl)cc21)c1ccncc1,"inconclusive [cytotoxic, partial curve]",
Cc1ccc(C2=CN(Cc3ccccc3)CCC2=O)cc1,inactive,
CSc1ccc(/C=C/c2ccc3cccc(O)c3n2)cc1,"inconclusive [cytotoxic, single point]",
CCNC(=S)NNc1ccccc1,active: 8.2 µM,
CCCc1nc2c(C)cc(Br)cn2c1Cc1ccccc1,"inconclusive [cytotoxic, single point]",
CCn1c(-c2cc(OC)c(OC)c(OC)c2)n[nH]c1=S,inactive,
O=c1oc(-c2ccco2)nc2c1cnn2-c1ccccc1,inactive,
c1ccc(-c2c[n+]3c(n2-c2ccccc2)CCC3)cc1,active: 20.6 µM,
CCOC(=O)C1=CCN(S(=O)(=O)c2ccc(C)cc2)C1c1ccc(CC)cc1 (configuration not stated),,inconclusive: -30.7% [cytotoxic]
C[C@@]12C(=O)N(c3cccc(F)c3)C(=O)N1[C@@H]1c3ccccc3OC[C@@H]1[C@H]2c1ccccc1,"inconclusive [rising, single point]",
Cc1ccc(N=Nc2c(N)nn3c(N)c(C#N)c(C)nc23)cc1,"inconclusive [cytotoxic, single point]",
COc1ccccc1/C=C\C(=O)NCC(=O)N/N=C/c1cccc(OC)c1O,"inconclusive [cytotoxic, partial curve]",
O=[N+]([O-])c1cccc(-c2cc(-c3cc(Br)ccc3O)[nH]n2)c1,"inconclusive [cytotoxic, single point]",
CC(C)(C)c1ccc(OCC(=O)NCc2ccco2)c(Br)c1,"inconclusive [cytotoxic, single point]",
OC(COCCC12CC3CC(CC(C3)C1)C2)CN1CCCC1 (configuration not stated),"inconclusive [cytotoxic, single point]",
Cc1ccc(C)c(N2CCN(C(=O)c3ccc(CS(=O)(=O)c4ccccc4C)o3)CC2)c1,"inconclusive [cytotoxic, single point]",
CCCC(=O)Nc1nnc(S(=O)(=O)N(CC)c2ccc(OC)cc2)s1,inactive,
C=C(C)COc1ccc(-c2n[nH]c(C)c2Oc2ccccc2OC)c(O)c1,"inconclusive [cytotoxic, single point]",
CS(=O)(=O)NCCOc1ccc(S(=O)(=O)N2CCCc3ccccc32)cc1,"inconclusive [cytotoxic, single point]",
Cc1cc(Nc2ccccc2)n(-c2nc3ccccc3[nH]2)n1,"inconclusive [cytotoxic, single point]",
Cc1cc(Br)cn2c(Cc3cccc(Cl)c3)c(-c3ccco3)nc12,"inconclusive [cytotoxic, single point]",
